# Source: the supplement of paper PMC4166925
# ± gives the standard deviation of the averaged measurements. The full ranking holds about 33,000 sequences; the median of “E-score (dimensionless, -0.5 to 0.5)” is about -0.049, and the highest 2% start at about 0.37. Some of the results follow.
# Tested on: T1, PmTbr T-box DNA-binding domain (GST fusion)
# T1 sequence: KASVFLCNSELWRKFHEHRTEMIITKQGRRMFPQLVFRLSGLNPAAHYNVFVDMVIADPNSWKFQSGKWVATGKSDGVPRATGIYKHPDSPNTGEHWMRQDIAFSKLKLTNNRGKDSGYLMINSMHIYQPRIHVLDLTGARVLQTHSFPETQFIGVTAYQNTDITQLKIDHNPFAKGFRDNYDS
# Experiment: PBM E-score of 8-mer (E-score (dimensionless, -0.5 to 0.5)); Tbr is Tbrain of the sea star Patiria miniata (Pm) or the sea urchin Strongylocentrotus purpuratus (Sp); higher = stronger binding preference; most listed sequences are background and not binding sites
# Conditions: the construct has about 5 more residues each side
# Outline: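 Universal Agilent oligonucleotide arrays, made double-stranded by primer extension, were incubated with 200 nM GST-fused Tbr T-box DNA-binding domain in PBS (pH 7.5). The protein was expressed in BL21 E. coli at 20 °C and purified by glutathione affinity chromatography. After scanning and quantification, the Universal PBM Analysis Suite assigned an enrichment E-score to each ungapped 8-mer, averaged over duplicate arrays.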
row,Sequence,PBM E-score of 8-mer
1,AATGTGTG,0.408 ± 0.014
2,ACATATCT,-0.00342 ± 0.022
3,GTGTCGAA,0.38248 ± 9.9e-05
4,CCACCACA,0.117 ± 0.02
5,AACAAAGG,-0.099 ± 0.002
6,CCGACTTA,0.0179 ± 0.14
7,AGCAGGAG,-0.0716 ± 0.065
8,AGAGTCAG,-0.379 ± 0.042
9,ATTGTGTA,0.0104 ± 0.054
10,AACCTAAA,-0.034 ± 0.094
11,AGATGATA,-0.0267 ± 0.12
12,CACACTTC,0.445 ± 0.005
13,CCCGTCAA,0.192 ± 0.0077
14,CATTGCCG,0.0765 ± 0.039
15,AGTAGACA,0.00012 ± 0.051
16,GAAGCCAC,-0.0904 ± 0.026
17,AAACAGCT,0.117 ± 0.05
18,GAAGCAGA,-0.105 ± 0.043
19,GATGAATA,-0.116 ± 0.016
20,AGGTACGA,0.0181 ± 0.018
21,TAGAGCCA,0.0491 ± 0.0064
22,CATGAGTC,-0.0716 ± 0.022

row,Sequence,PBM E-score of 8-mer
1,AATGAATC,-0.277 ± 0.0033
2,CACTTCTG,0.3 ± 0.039
3,AGCTGCTA,0.202 ± 0.049
4,CACTAATC,0.155 ± 0.011
5,GCTACGAC,0.00882 ± 0.05
6,CATTTTTA,-0.0361 ± 0.089
7,CAGCGCGC,0.0127 ± 0.026
8,AACGACTC,-0.00826 ± 0.037
9,ACCGGCAG,0.0302 ± 0.0023
10,CTGGAAAC,-0.276 ± 0.079
11,GCTACACA,0.00256 ± 0.053
12,CTACATTC,-0.292 ± 0.08
13,GGAAAACC,-0.0445 ± 0.061
14,GCCCGTCA,-0.0107 ± 0.082
15,CTATTCCC,-0.194 ± 0.035
16,ATTGGGAA,-0.0968 ± 0.048
17,GACGTTCA,-0.114 ± 0.046
18,GCGGCCCA,-0.358 ± 0.054
19,TGCTTTAA,-0.0842 ± 0.071
20,AATCCTGA,-0.0518 ± 0.0094
21,CATGTTCA,0.0108 ± 0.035
22,CCCTTACA,0.0775 ± 0.053

row,Sequence,PBM E-score of 8-mer
1,CCGAGTGC,0.0175 ± 0.059
2,CACGAATC,0.044 ± 0.0014
3,CGTATACA,-0.137 ± 0.011
4,ATTAGTAA,-0.0931 ± 0.011
5,ATCGTTCG,0.15 ± 0.074
6,GAGCCCTA,-0.268 ± 0.037
7,GTTCTTGA,-0.19 ± 0.0029
8,CATCCATC,-0.182 ± 0.0099
9,GCGTCGAC,0.119 ± 0.024
10,TGCGGAAA,0.0593 ± 0.022
11,CACTAGAG,0.00874 ± 0.031
12,AGTCGCGG,0.0686 ± 0.037
13,ACGTTACA,-0.0906 ± 0.04
14,TCTCGAAA,0.0424 ± 0.034
15,CGGGCTAG,-0.208 ± 0.032
16,GGTGGAAC,-0.0137 ± 0.046
17,AACAGCGG,-0.0252 ± 0.0036
18,AGCTTTGC,0.0439 ± 0.036
19,AAGTCCCG,-0.0424 ± 0.069
20,AAATTGTC,0.137 ± 0.049
21,ACGAGAAA,-0.00374 ± 0.034
22,AAGTTAAT,-0.107 ± 0.036

row,Sequence,PBM E-score of 8-mer
1,ACATATCC,-0.0724 ± 0.065
2,ACTGTTCC,-0.0486 ± 0.031
3,GAGCCTCC,-0.253 ± 0.035
4,TAGATGCA,-0.281 ± 0.067
5,CCCTTCCA,-0.1 ± 0.073
6,GATTGAAC,-0.143 ± 0.015
7,ACGATATC,0.111 ± 0.0075
8,ACCCAACT,-0.0184 ± 0.071
9,AATTGTTA,0.173 ± 0.08
10,CAATAAAC,-0.0819 ± 0.1
11,AACCCCGC,0.1313 ± 0.0012
12,AATGCTCG,-0.114 ± 0.014
13,CAAAAACA,0.0289 ± 0.033
14,TACTCAAA,-0.0222 ± 0.072
15,CCGTGTTC,-0.0125 ± 0.027
16,CCAGCCTA,-0.0317 ± 0.035
17,ACCGATCA,-0.119 ± 0.12
18,ACTTTGCA,0.168 ± 0.015
19,ATTGGTAC,-0.0718 ± 0.029
20,TACATGCA,-0.278 ± 0.068
